In ChEMBL document CHEMBL1144677, “Novel quinazolinone derivatives as 5-HT7 receptor ligands” (Bioorg Med Chem, 2008):

Assays:
[1] = target: T1, 5-hydroxytryptamine receptor 1A (Homo sapiens, UniProt P08908)
T1 sequence (P08908 whole entry): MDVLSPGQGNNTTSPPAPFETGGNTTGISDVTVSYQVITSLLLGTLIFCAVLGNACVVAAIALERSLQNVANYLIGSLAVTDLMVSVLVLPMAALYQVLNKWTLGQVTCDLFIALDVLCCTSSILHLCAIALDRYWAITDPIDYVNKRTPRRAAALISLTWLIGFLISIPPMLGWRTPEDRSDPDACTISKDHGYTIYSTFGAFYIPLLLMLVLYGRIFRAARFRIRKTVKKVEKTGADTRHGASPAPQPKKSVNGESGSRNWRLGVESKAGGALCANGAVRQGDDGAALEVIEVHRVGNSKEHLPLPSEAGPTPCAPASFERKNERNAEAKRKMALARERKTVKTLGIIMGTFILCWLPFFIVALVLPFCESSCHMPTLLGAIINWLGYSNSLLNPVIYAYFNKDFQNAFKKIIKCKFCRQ

[2] = target: T2, 5-hydroxytryptamine receptor 2C (Homo sapiens, UniProt P28335)
T2 sequence (P28335 whole entry): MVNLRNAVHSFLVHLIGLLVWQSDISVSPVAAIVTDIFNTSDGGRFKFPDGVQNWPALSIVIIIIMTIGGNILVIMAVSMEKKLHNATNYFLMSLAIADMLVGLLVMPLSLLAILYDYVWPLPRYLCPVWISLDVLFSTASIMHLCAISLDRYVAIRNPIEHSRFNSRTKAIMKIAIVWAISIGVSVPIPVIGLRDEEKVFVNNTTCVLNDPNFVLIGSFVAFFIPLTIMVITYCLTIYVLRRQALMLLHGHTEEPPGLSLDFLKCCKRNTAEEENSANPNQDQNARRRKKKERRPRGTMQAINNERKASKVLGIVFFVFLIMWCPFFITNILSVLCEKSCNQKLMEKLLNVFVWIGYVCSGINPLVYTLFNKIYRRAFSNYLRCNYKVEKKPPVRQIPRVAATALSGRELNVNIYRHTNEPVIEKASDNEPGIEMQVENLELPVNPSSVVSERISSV

[3] = target: 5-hydroxytryptamine receptor 2A (Homo sapiens, UniProt P28223)
Sequence of 5-hydroxytryptamine receptor 2A (P28223 whole entry): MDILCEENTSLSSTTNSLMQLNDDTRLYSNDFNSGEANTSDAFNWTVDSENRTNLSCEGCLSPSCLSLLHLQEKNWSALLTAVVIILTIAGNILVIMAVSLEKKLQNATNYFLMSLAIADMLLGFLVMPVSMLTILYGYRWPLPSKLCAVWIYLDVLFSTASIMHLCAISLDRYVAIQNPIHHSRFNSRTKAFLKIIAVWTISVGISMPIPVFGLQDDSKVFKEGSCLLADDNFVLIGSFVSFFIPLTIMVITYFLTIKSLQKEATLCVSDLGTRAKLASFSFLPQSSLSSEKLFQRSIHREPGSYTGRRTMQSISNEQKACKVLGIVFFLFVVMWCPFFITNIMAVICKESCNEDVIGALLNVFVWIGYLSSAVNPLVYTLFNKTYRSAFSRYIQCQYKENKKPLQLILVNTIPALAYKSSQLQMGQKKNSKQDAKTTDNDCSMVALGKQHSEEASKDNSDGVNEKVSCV

D(2) dopamine receptor = D(2) dopamine receptor (Homo sapiens, UniProt P14416)
Sequence of D(2) dopamine receptor (P14416 whole entry): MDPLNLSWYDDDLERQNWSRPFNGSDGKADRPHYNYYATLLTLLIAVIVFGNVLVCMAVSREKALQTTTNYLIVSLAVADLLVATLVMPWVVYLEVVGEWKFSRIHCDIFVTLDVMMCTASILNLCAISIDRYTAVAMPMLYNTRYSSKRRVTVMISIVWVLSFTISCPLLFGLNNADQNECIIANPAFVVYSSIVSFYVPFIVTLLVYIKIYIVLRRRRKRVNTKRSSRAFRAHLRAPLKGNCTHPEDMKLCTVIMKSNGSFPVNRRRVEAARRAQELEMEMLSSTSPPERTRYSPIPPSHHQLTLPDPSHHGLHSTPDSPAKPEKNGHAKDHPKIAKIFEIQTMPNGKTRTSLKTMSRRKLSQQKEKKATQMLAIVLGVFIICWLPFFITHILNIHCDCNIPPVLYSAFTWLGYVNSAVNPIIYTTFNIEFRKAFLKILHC

Structure (SMILES)	IC50 [1]	IC50 [2]	IC50 [3]	IC50 (D(2) dopamine receptor)
CCOc1ccccc1N1CCN(CCCC(=O)NCc2nc3cc(F)ccc3c(=O)n2-c2ccc(OC)cc2)CC1	370 nM	3800 nM	2100 nM	1500 nM
Cc1cccc(N2CCN(CCCC(=O)NCc3nc4cc(F)ccc4c(=O)n3-c3ccccc3)CC2)c1C	400 nM	3400 nM	1700 nM	1500 nM
CCOc1ccccc1N1CCN(CCCC(=O)NCc2nc3ccc(F)cc3c(=O)n2-c2ccc(OC)cc2)CC1	120 nM	> 10000 nM	7900 nM	140 nM
